Measurements: the supplement of paper PMC4604168 (melanoma cell lines)
The list shows a part of the results. Most values come without repeats; read them as rough.

The compounds below were run on COLO792 (assay: cell count relative to DMSO control; melanoma cells; higher = more viable cells). Conditions: library dose: standard library concentration; 72 h.
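Also: cells treated in 1,536-well plates, then fixed and DAPI-stained, with nuclei counted from automated high-throughput microscope images.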

SMILES	cell count
CN(NC(=O)CC(=O)NN(C)C(=S)c1ccccc1)C(=S)c1ccccc1 + COc1cc(N2CCC(N3CCN(C)CC3)CC2)ccc1Nc1ncc(Cl)c(Nc2ccccc2S(=O)(=O)C(C)C)n1 [NVP-TAE684] (first compound 0.03 µM, partner dose 0.4 µM)	14.3%
CN(NC(=O)CC(=O)NN(C)C(=S)c1ccccc1)C(=S)c1ccccc1 + CCCCCCCCCCCC1=C(O)C(=O)C=C(O)C1=O [Embelin] (first compound 0.03 µM, partner dose 6 µM)	13.3%
CC(C)(C)c1cnc(CSc2cnc(NC(=O)C3CCNCC3)s2)o1 + O=C(Nc1ccccc1)c1cc([N+](=O)[O-])ccc1Cl [GW9662] (first compound 0.05 µM, partner dose 10 µM)	104%
CCCCCCCCc1ccc(CCC(N)(CO)CO)cc1 [fingolimod] + CCCS(=O)(=O)Nc1ccc(F)c(C(=O)c2c[nH]c3ncc(Cl)cc23)c1F [PLX4720] (first compound 10 µM, partner dose 0.4 µM)	2.43%
CCCCCCCCc1ccc(CCC(N)(CO)CO)cc1 [fingolimod] + O=C(O)C(=O)Nc1sc2c(c1C(=O)O)CCNC2 [TCS401] (first compound 10 µM, partner dose 8.33333 µM)	13.1%
CCc1ccc(CCOc2ccc(CC3SC(=O)NC3=O)cc2)nc1 (stereo unspecified) [pioglitazone] + COC(=O)c1sccc1S(=O)(=O)Nc1ccc(Nc2ccccc2)cc1OC [GSK0660] (first compound 10 µM, partner dose 5 µM)	112%
COc1cc2c(Oc3ccc4[nH]c(C)cc4c3F)ncnc2cc1OCCCN1CCCC1 [cediranib] + COc1cc(N2CCC(N3CCN(C)CC3)CC2)ccc1Nc1ncc(Cl)c(Nc2ccccc2S(=O)(=O)C(C)C)n1 [NVP-TAE684] (first compound 2 µM, partner dose 0.4 µM)	55.3%
CC(C)(C)c1cnc(CSc2cnc(NC(=O)C3CCNCC3)s2)o1 + CCCCCCCCCCCC1=C(O)C(=O)C=C(O)C1=O [Embelin] (first compound 0.05 µM, partner dose 6 µM)	65.8%
CCCCCCCCc1ccc(CCC(N)(CO)CO)cc1 [fingolimod] + CN1CCN(c2ccc3nc(-c4c(N)c5c(F)cccc5[nH]c4=O)[nH]c3c2)CC1 [Dovitinib] (first compound 10 µM, partner dose 0.5 µM)	0.955%
CCCCCCCCc1ccc(CCC(N)(CO)CO)cc1 [fingolimod] + COc1ccc2c(c1)CCC1C2CCC2(C)C(NCCCCCCN3C(=O)C=CC3=O)CCC12 [U73122] (first compound 10 µM, partner dose 2 µM)	17.3%
Cc1ccc(NC(=O)c2cccc(N(C)C)c2)cc1NC(=O)c1ccc(O)cc1 + Cc1cc(N2CCOCC2)cc2[nH]c(-c3c(NC[C@@H](O)c4cccc(Cl)c4)cc[nH]c3=O)nc12 [BMS536924] (first compound 10 µM, partner dose 1 µM)	75.4%
NC(=O)c1ccc(N(C(N)=O)c2c(F)cccc2F)nc1-c1ccc(F)cc1F + CCCCCCCCCCCC1=C(O)C(=O)C=C(O)C1=O [Embelin] (first compound 2 µM, partner dose 6 µM)	100%
NC(=O)c1ccc(N(C(N)=O)c2c(F)cccc2F)nc1-c1ccc(F)cc1F + Cn1nnc2c(C(N)=O)ncn2c1=O [temozolomide] (first compound 2 µM, partner dose 10 µM)	75.4%
CN(NC(=O)CC(=O)NN(C)C(=S)c1ccccc1)C(=S)c1ccccc1 + COc1ccc2c(c1)CCC1C2CCC2(C)C(NCCCCCCN3C(=O)C=CC3=O)CCC12 [U73122] (first compound 0.03 µM, partner dose 2 µM)	85.4%
NC(=O)c1ccc(N(C(N)=O)c2c(F)cccc2F)nc1-c1ccc(F)cc1F + CN(NC(=O)CC(=O)NN(C)C(=S)c1ccccc1)C(=S)c1ccccc1 [STA4783] (first compound 2 µM, partner dose 0.03 µM)	16.5%
Cc1ccc(NC(=O)c2cccc(N(C)C)c2)cc1NC(=O)c1ccc(O)cc1 + O=C(Nc1cccc(Cl)c1)Nc1ncc(CCNc2ncnc3ccsc23)s1 [SNS314] (first compound 10 µM, partner dose 0.004 µM)	50.1%
